Measured values taken from PubChem BioAssay AID1508623 (National Center for Advancing Translational Sciences (NCATS), 2021).
Hit rate of the full screen: of about 48,000 compounds, about 450 (0.94%) were called active. About 19% were inconclusive and are not listed. Calls come from the whole dose curve; as a rule, active = well fitted inhibition curve with a large enough effect; inconclusive = small, poorly fitted or top-dose-only effect; inactive = no such curve, though single readings can be large or run the other way. The list shows a part of the results.

Experiment: Primary qHTS for Identification of Small Molecule Inhibitors of Huntingtin Promoter Activity; note: nearly all actives have a fitted effect of over 50% in size
Conditions: HEK293 HTT promoter firefly luciferase reporter (activity 0% = vehicle and -100% = no light), 24 h; series mostly up to 57.5 µM; activity change, negative = inhibition: at the top concentration
Summary of the method: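 Quantitative HTS used concentration series of up to 57.5 uM final on HEK293 luciferase reporter cells, 24 h at 37 degrees C. Readout was Dual-Glo firefly luminescence.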

Activity change, negative = inhibition, inactive:
COc1ccc(-c2noc(-c3ccc(NCCc4ccccc4)c([N+](=O)[O-])c3)n2)cc1 -6.84%
O=C(Cn1cc(S(=O)(=O)Cc2ccccc2Cl)c2ccccc21)Nc1ccc(F)cc1F -12.8%
CCOc1ccc(CNC(=O)c2ccc3c(c2)N(Cc2ccccc2)CCS3)cc1 -20.5%
O=C(Cn1ncc2c(Cl)cccc21)NCc1cccc(F)c1 6.71%
CC(=O)Nc1ccc2nc(SCCOc3ccccc3Cl)sc2c1 -11%
CCOC(=O)c1c(C)[nH]c(C)c1S(=O)(=O)N(C)CC(=O)Nc1ccc(C)c(F)c1 -14.2%
CCCCN(c1ccccc1)c1ncnc2c1cnn2-c1cccc(C)c1 0%
COC(=O)c1cc2sccc2n1Cc1nc(-c2ccc(C)cc2)oc1C -37.4%
CCc1ccccc1NC(=O)c1ccc2c(c1)c(C)c(C)n2Cc1ccccc1 -12.3%
CN(C(=O)CSc1nc2ccccc2n1CC(=O)N(C)C1CCCCC1)c1ccc(F)cc1 -17.7%
CCc1ccc(S(=O)(=O)c2cn(Cc3ccc(OC)cc3)c3cc(OC)c(OC)cc3c2=O)cc1 -17.2%
O=C(COc1ccc(Br)cc1)Nc1ccc(C(=O)OC2CCCCC2)cc1 10.8%
CCOc1ccc(NC(=O)Cn2c(=O)n(-c3ccccc3)c(=O)c3c4c(sc32)CCCC4)cc1 -1.11%
CCc1nnc2c3ccccc3nc(N3CCN(c4cc(Cl)ccc4C)CC3)n12 -24.2% [at 11.5 µM]
Cc1c(Cl)cccc1NC(=O)Cn1c(=O)n(Cc2ccco2)c(=O)c2oc3ccccc3c21 -4.46%
COC(=O)c1c(Oc2ccc(Br)cc2)nnc(-c2ccccc2)c1-c1ccccc1 -17.4%
CCc1nc2nc(C)cc(Nc3ccc(F)c(Cl)c3)n2n1 -37%
Cc1ccc(CN2CCC(CNC(=O)Nc3cccc(C)c3C)C2)cc1 (stereo unspecified) -2.84%
O=C1CC(c2ccc(Br)cc2)c2c(ccc3ccccc23)N1 (stereo unspecified) 56% [at 11.5 µM]
Cc1cccc(C(=O)Nc2ccccc2OCc2cc(=O)n3cc(C)ccc3n2)c1 1.83%
CCN(CC)CCCNc1oc(-c2ccc(OC)cc2)nc1C#N -5.82%
COc1ccccc1-c1c(C)nn2c(N3CCN(c4ccc(F)cc4)CC3)cc(C)nc12 -9.03%
CC(Oc1ccc(O)cc1)(P(=O)(O)O)P(=O)(O)O -2.2%
CC(C)n1c(=O)c2oc3ccccc3c2n(CC(=O)Nc2ccccc2Cl)c1=O 1.73%
COc1ccc(N2CC(NC(=O)c3cccs3)CC2=O)cc1OC (stereo unspecified) -2.89%
O=C(Nc1ccc(F)cc1)c1ccc(-n2cnnc2)cc1 -0.48%
CCc1ccc(-c2[nH]c3c(c2-c2c(-n4cccc4)n(C)c(=O)[nH]c2=O)c(=O)[nH]c(=O)n3C)cc1 -2.23%
O=C(Nc1nnc(S(=O)(=O)N2CCCCC2)s1)c1ccc(Cl)cc1 -12.3%
O=C1NC(=O)C(c2ccccc2[N+](=O)[O-])=C1Nc1ccc(O)c(Cl)c1 -18.3%
CC(=O)Nc1ccc(NS(=O)(=O)c2ccc3c(c2)CCCN3C(C)=O)cc1 -3.52%
COc1ccc(-n2ncc(C(=O)Nc3ccc(C)cc3Cl)c2C2CCN(C(=O)OC(C)(C)C)CC2)cc1 -6.78%
CCN(CC)CCNC(=O)C1CCCN(c2nnc(C)c3c(C)n(-c4ccc(Cl)cc4)nc23)C1 (stereo unspecified) -21.7%
CCOc1ccc(-c2cn3c(n2)sc2cc(C(=O)NCCC4=CCCCC4)ccc23)cc1 -4.19%
CCOc1ccc(NC(=O)CSc2nnc(CC)c(CC)n2)cc1 -21.4%
Cc1cccc(C)c1NC(=O)C1CCCN(S(=O)(=O)c2c(C)noc2/C=C/N(C)C)C1 (stereo unspecified) -10.6%
COc1ccccc1CNC(=O)c1ccc(NC(=O)N2CC(C)Sc3ccccc32)cc1 (stereo unspecified) -27%
COc1ccc(S(=O)(=O)NCC(c2ccco2)S(=O)(=O)c2ccc(C)cc2)cc1C (stereo unspecified) -19.4%
Cc1ccc(-c2noc(-c3cccnc3NCc3ccc(Cl)cc3)n2)cc1 16.5%
Cc1ccc(-c2nc3scc(CCNS(=O)(=O)c4ccc(C)c(C)c4)n3n2)cc1 -28%
Cc1cccc(OCC(=O)Nc2ccc(C(=O)OCc3cc(=O)n4nc(C5CC5)sc4n3)cc2)c1 -9.59%
COC(=O)c1ccc(NC(=O)CSc2ccc(-c3cccs3)nn2)cc1 6.56%
CCc1ccc(NC(=O)C(Cc2ccccc2)NS(=O)(=O)c2ccc3c(c2)CCN3C(C)=O)cc1 (stereo unspecified) -18.8%
Cc1cc(C)c(NC(=O)c2cc(CN3CCOCC3)on2)c(C)c1 -0.0094%
COc1ccc2cc(S(=O)(=O)c3ccccc3F)c(=O)oc2c1 -29.2%
CCCc1ncc(C[n+]2ccccc2C)c(N)n1 7.75%
C#CCOc1ccc(C2C(C(=O)OC)=C(C)NC3=C2C(=O)c2ccccc23)cc1OCC (stereo unspecified) -27.8%
CCOc1ccc(Sc2cc(C(=O)NCCCOC)c3ccccc3n2)cc1 -20.8%
Cc1ccc(C)c(CSc2c(C(C)C)cnc3c2c(=O)n(C)c(=O)n3C)c1 -27.1%
Cc1ccc(NC(=O)Cn2cc(S(=O)(=O)N3CCN(c4ccccc4F)CC3)c3ccccc3c2=O)cc1F -19.9%
Cc1csc2nc(COc3ccc(NC(=O)COc4ccc(F)cc4)cc3)cc(=O)n12 4.9%
CCOc1ccc(/C=C/c2nc(C#N)c(N(C)C)o2)cc1 57.4%
Cc1cc2c(cc1NC(=O)c1ccc(C(C)(C)C)cc1)n(C)c(=O)c(=O)n2C 4.2%
CCOc1ccccc1CNC(=O)c1nn(C)c2c1CS(=O)(=O)c1ccccc1-2 -23.2%
CC(C)c1ccc(CNc2nc(-c3ccco3)nn2S(=O)(=O)c2ccccc2)cc1 -2.55%
COc1ccc(NC(=O)c2sc3nc[nH]c(=O)c3c2C)cc1 80.3%
Cc1ccc(-c2cc(C(=O)Oc3ccccc3)c3cccc(C)c3n2)cc1 -15%
Cc1sc(-c2cc3ccccc3oc2=O)nc1-c1ccc(Cl)cc1 3.6%
COC(=O)c1cc(S(=O)(=O)N2CCN(c3ccc(C)cc3C)CC2)cn1C -5.09%
O=C1CC(c2ccccc2)Cc2[nH]c(=O)c(-c3nc(-c4ccc(F)cc4)cs3)cc21 (stereo unspecified) -27.1%
CC(C)Oc1ccc(CNC(=O)C2COc3ccccc3C2)cc1 (stereo unspecified) 18.6%
O=C(CN1C(=O)COc2ccc(S(=O)(=O)N3CCCC3)cc21)N1CCN(c2ccccc2F)CC1 -8.75%
CCOc1ccc(C2c3c(oc4ccc(C)cc4c3=O)C(=O)N2c2nc(C)c(C)s2)cc1OC (stereo unspecified) 9.65%
COc1ccc(-c2noc(-c3ccc(N4CCCCC4)c([N+](=O)[O-])c3)n2)cc1 -4.78%
CCCCCCOc1ccc(-c2nc3ccc(Br)cc3c(=O)o2)cc1 0.484%
COC(=O)c1ccccc1NC(=O)Nc1cccc(OCc2cc(=O)n3cccc(C)c3n2)c1 14%
CCN1CCN(C(c2cccc(Cl)c2)c2c(O)cc(C)n(CCOC)c2=O)CC1 (stereo unspecified) -15.1%
Cc1ccc(CCNC(=O)CN2C(=O)COc3ccc(S(=O)(=O)N4CCC(C)CC4)cc32)cc1 -26.9%
Cc1cc(OCC(=O)NCC2(N(C)C)CCCCC2)cc(C)c1Cl -5.14%
CCn1cc(C(=O)NCCCN(CC(C)C)CC(C)C)c(=O)c2cc(S(=O)(=O)N3CCc4ccccc4C3)ccc21 -6.52%
COc1ccc(CC(=O)Nc2ccc(-c3nc4ccccc4s3)cc2Cl)cc1 -27%
O=C(NCc1ccccc1)C(=O)NCC(c1ccco1)S(=O)(=O)c1ccccc1 (stereo unspecified) -16.3%
CCc1ccc(NC(=O)N(Cc2c[nH]c3ccccc23)C2CCCCCC2)cc1 38.1%
Cc1cc2nn(-c3ccc(F)cc3)nc2cc1NC(=O)c1cc(Cl)ccc1Cl 13.5%
CCCN(CCC)c1nn2c(=O)c(C(=O)NCc3cccc(OC)c3)cnc2s1 -5.51%
COc1ccc(Cl)cc1NC(=O)CSc1nnc(C)n2c1cc1occc12 -9.36%
CCC1CN(C(=O)NCc2cccc(OC)c2)c2ccccc2O1 (stereo unspecified) -4.01%
COc1ccc(-c2[nH]c(-c3ccccc3)nc2SCC(=O)NC2CCCC2)cc1 -26.3%
COc1ccc(CCNC(=O)c2cc3c(=O)n(C)c4cc(Cl)ccc4c3s2)cc1OC -7.03%
O=S1(=O)c2ccccc2N(Cc2ccccc2Cl)c2ccccc21 -1.84%
COc1cccc(NC(=O)C(=O)NCCc2sc(-c3cccc(C)c3)nc2C)c1 43.2%
Cc1ccc(-c2ccc(=O)n(CC(=O)NC(C)c3ccccc3)n2)cc1 (stereo unspecified) -3.2%
CC(C(=O)O)c1cccc(Oc2ccccc2)c1 (stereo unspecified) -0.955%
Cc1ccccc1NC(=O)Cn1c(=O)n(CCCCC(=O)NCc2ccccc2Cl)c(=O)c2ccccc21 -8.36%
O=C(CN1C(=O)COc2ccc(S(=O)(=O)Nc3ccccc3)cc21)NCc1ccccc1Cl -6.34%
CCOC(=O)c1c(S(=O)(=O)N2CCC(C(=O)Nc3cccc(C#N)c3)CC2)c(C)n(C)c1C -14%
COc1ccc(CCNc2nc(SCc3ccccc3Cl)nc3ccccc23)cc1OC -5.43%
COc1ccc(NC(=O)Cn2c(=O)n(CCc3ccccc3)c(=O)c3sc4ccccc4c32)cc1 14.9%
Cc1cc(C)nc(-n2nc(C)c3c2NC(=O)CC3c2ccccc2OC(C)C)n1 (stereo unspecified) -29.5%
Cc1ccc(C)c(NC(=O)C2CCCN(S(=O)(=O)c3cccc4nsnc34)C2)c1 (stereo unspecified) -23.5%
CCCCC(=O)NC1(C(F)(F)F)C(=O)Nc2c1c(=O)[nH]c(=O)n2-c1ccc(F)cc1 (stereo unspecified) -11.2%
COc1cc(Cl)c(NS(=O)(=O)c2ccc3[nH]c(=O)ccc3c2)c(OC)c1 -18.6%
CCC1CCCCN1C(=O)Cn1c(=O)n(-c2ccccc2C(F)(F)F)c(=O)c2c(C)c(C(=O)N(C)C)sc21 (stereo unspecified) 13.3%
CCOc1ccc(NC(=O)C(CC)n2nc(-c3ccc(C)c(C)c3)ccc2=O)cc1 (stereo unspecified) -26%
COc1ccc(C2CC(=O)c3c([nH]c(C(=O)OC4CCCC4)c3C)C2)cc1OC (stereo unspecified) -19.7%
COc1ccccc1N1CCN(C(c2ccccc2)c2nnc(-c3ccccc3Cl)o2)CC1 (stereo unspecified) -11%
Cc1ccc(NC(=O)Cn2c(=O)n(Cc3nc(-c4ccccc4)no3)c(=O)c3cc4c(cc32)OCO4)cc1C 6.42%
